The other results are listed elsewhere or left out.

This assay deals with T1, MBP-FoxP1dN (Mus musculus, UniProt P58462 326-579).
T1 sequence: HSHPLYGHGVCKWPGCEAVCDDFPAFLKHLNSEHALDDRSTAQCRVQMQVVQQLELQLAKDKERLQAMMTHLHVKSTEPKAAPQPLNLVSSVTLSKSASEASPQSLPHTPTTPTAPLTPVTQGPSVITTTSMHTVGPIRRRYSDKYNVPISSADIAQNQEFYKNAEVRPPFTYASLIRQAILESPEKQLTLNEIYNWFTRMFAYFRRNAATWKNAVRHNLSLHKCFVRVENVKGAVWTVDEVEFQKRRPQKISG
Briefly: PD-seq (MBP pull-down with sequencing); 20 mM Tris-HCl pH 7.5, 100 mM NaCl, 1.5 mM MgCl2, 0.4 uM protein, 0.1 uM dsDNA library, 30 min, room temperature, amylose pull-down; high values mean tight binding. Conditions: protein: recombinant; tags: His6-MBP; chain copies: 2; dsDNA, one strand shown. The method, boiled down:
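Binding is given as reads-per-million enrichment, pull-down over input, with replicates pooled. The bait was an N-terminus-lacking mouse FoxP3 or FoxP1 fragment with a His6-MBP tag, expressed in E. coli and used at 0.4 µM with 0.1 µM Klenow-filled degenerate double-stranded DNA library for 30 min at room temperature in Tris pH 7.5 buffer with NaCl and MgCl2. Amylose resin pull-down with three washes was followed by proteinase K release, PCR barcoding and Illumina sequencing.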
Regarding “GATGATTGTTCTCCCAGCTGATGAATTCGGACAATCGAGTAAACAAATTTTCCTAATCTTTCTGTTCAAGCGCCATCTAC”, the binding signal was 1.07 RPM ratio (pull-down/input).
“GATGATTGTTCTCCCAGCTGATGAATTTGGTTGTTCGAGTAAACAAATTTTCCTAATCTTTCTGTTCAAGCGCCATCTAC”: the binding signal was 1.29 RPM ratio (pull-down/input).
Take “GATGATTGTTCTCCCAGCTGATGAATTGGCACGCTCGAGTAAACAAATTTTCCTAATCTTTCTGTTCAAGCGCCATCTAC”: the binding signal is 0.914 RPM ratio (pull-down/input).
Turning to “GATGATTGTTCTCCCAGCTGATGAATTAGATGGATCGAGTAAACAAATTTTCCTAATCTTTCTGTTCAAGCGCCATCTAC”, the binding signal is 0.927 RPM ratio (pull-down/input).
Regarding “GATGATTGTTCTCCCAGCTGATGAATTCGGCGGCTCGAGTAAACAAATTTTCCTAATCTTTCTGTTCAAGCGCCATCTAC”, the binding signal was 0.759 RPM ratio (pull-down/input).
For the sequence “GATGATTGTTCTCCCAGCTGATGAATTACGCCACTCGAGTAAACAAATTTTCCTAATCTTTCTGTTCAAGCGCCATCTAC”, the binding signal is 1.02 RPM ratio (pull-down/input).
In the case of “GATGATTGTTCTCCCAGCTGATGAATTCGTAGCCTCGAGTAAACAAATTTTCCTAATCTTTCTGTTCAAGCGCCATCTAC” it was 0.888 RPM ratio (pull-down/input); in that of “GATGATTGTTCTCCCAGCTGATGAATTTACTGTATCGAGTAAACAAATTTTCCTAATCTTTCTGTTCAAGCGCCATCTAC”, 1.42 RPM ratio (pull-down/input); in that of “GATGATTGTTCTCCCAGCTGATGAATTCAGGACATCGAGTAAACAAATTTTCCTAATCTTTCTGTTCAAGCGCCATCTAC”, 0.996 RPM ratio (pull-down/input).
In the case of “GATGATTGTTCTCCCAGCTGATGAATTAATTTAATCGAGTAAACAAATTTTCCTAATCTTTCTGTTCAAGCGCCATCTAC” it was 0.99 RPM ratio (pull-down/input); in that of “GATGATTGTTCTCCCAGCTGATGAATTGCAAGAATCGAGTAAACAAATTTTCCTAATCTTTCTGTTCAAGCGCCATCTAC”, 1.24 RPM ratio (pull-down/input).
In the case of “GATGATTGTTCTCCCAGCTGATGAATTGTTGTCTTCGAGTAAACAAATTTTCCTAATCTTTCTGTTCAAGCGCCATCTAC”, the binding signal is 2.29 RPM ratio (pull-down/input).
For the sequence “GATGATTGTTCTCCCAGCTGATGAATTCTGGCTTTCGAGTAAACAAATTTTCCTAATCTTTCTGTTCAAGCGCCATCTAC”, the binding signal is 0.852 RPM ratio (pull-down/input).
The same measure for “GATGATTGTTCTCCCAGCTGATGAATTATGGGCTTCGAGTAAACAAATTTTCCTAATCTTTCTGTTCAAGCGCCATCTAC”: 0.874 RPM ratio (pull-down/input); for “GATGATTGTTCTCCCAGCTGATGAATTGAGATATTCGAGTAAACAAATTTTCCTAATCTTTCTGTTCAAGCGCCATCTAC”: 0.881 RPM ratio (pull-down/input).
Consider “GATGATTGTTCTCCCAGCTGATGAATTCCGCATGTCGAGTAAACAAATTTTCCTAATCTTTCTGTTCAAGCGCCATCTAC”, for which the binding signal is 0.892 RPM ratio (pull-down/input).
As to “GATGATTGTTCTCCCAGCTGATGAATTTATACGGTCGAGTAAACAAATTTTCCTAATCTTTCTGTTCAAGCGCCATCTAC”, the binding signal is 0.938 RPM ratio (pull-down/input).
As for “GATGATTGTTCTCCCAGCTGATGAATTTCTCCGATCGAGTAAACAAATTTTCCTAATCTTTCTGTTCAAGCGCCATCTAC”, the binding signal was 0.941 RPM ratio (pull-down/input).
On to “GATGATTGTTCTCCCAGCTGATGAATTGCAAATGTCGAGTAAACAAATTTTCCTAATCTTTCTGTTCAAGCGCCATCTAC”, for which the binding signal is 1.39 RPM ratio (pull-down/input).
The same measure for “GATGATTGTTCTCCCAGCTGATGAATTCGCACCATCGAGTAAACAAATTTTCCTAATCTTTCTGTTCAAGCGCCATCTAC”: 0.958 RPM ratio (pull-down/input); for “GATGATTGTTCTCCCAGCTGATGAATTCTGTGAATCGAGTAAACAAATTTTCCTAATCTTTCTGTTCAAGCGCCATCTAC”: 0.961 RPM ratio (pull-down/input).
The same measure for “GATGATTGTTCTCCCAGCTGATGAATTATCCATATCGAGTAAACAAATTTTCCTAATCTTTCTGTTCAAGCGCCATCTAC”: 1.04 RPM ratio (pull-down/input).
With “GATGATTGTTCTCCCAGCTGATGAATTTAACCGTTCGAGTAAACAAATTTTCCTAATCTTTCTGTTCAAGCGCCATCTAC”, the binding signal is 0.876 RPM ratio (pull-down/input).
The same measure for “GATGATTGTTCTCCCAGCTGATGAATTCGCGAGATCGAGTAAACAAATTTTCCTAATCTTTCTGTTCAAGCGCCATCTAC”: 0.83 RPM ratio (pull-down/input); for “GATGATTGTTCTCCCAGCTGATGAATTATTCATGTCGAGTAAACAAATTTTCCTAATCTTTCTGTTCAAGCGCCATCTAC”: 1.09 RPM ratio (pull-down/input).
As for “GATGATTGTTCTCCCAGCTGATGAATTTAGAGAATCGAGTAAACAAATTTTCCTAATCTTTCTGTTCAAGCGCCATCTAC”, the binding signal was 1.04 RPM ratio (pull-down/input).
“GATGATTGTTCTCCCAGCTGATGAATTGGTCTAATCGAGTAAACAAATTTTCCTAATCTTTCTGTTCAAGCGCCATCTAC”: the binding signal is 1.12 RPM ratio (pull-down/input).
Turning to “GATGATTGTTCTCCCAGCTGATGAATTTGCGAAGTCGAGTAAACAAATTTTCCTAATCTTTCTGTTCAAGCGCCATCTAC”, the binding signal is 0.924 RPM ratio (pull-down/input).
Regarding “GATGATTGTTCTCCCAGCTGATGAATTCGGCCATTCGAGTAAACAAATTTTCCTAATCTTTCTGTTCAAGCGCCATCTAC”, the binding signal was 0.918 RPM ratio (pull-down/input).
“GATGATTGTTCTCCCAGCTGATGAATTCGTATCGTCGAGTAAACAAATTTTCCTAATCTTTCTGTTCAAGCGCCATCTAC”: the binding signal was 0.979 RPM ratio (pull-down/input).
On to “GATGATTGTTCTCCCAGCTGATGAATTACTAATGTCGAGTAAACAAATTTTCCTAATCTTTCTGTTCAAGCGCCATCTAC”, for which the binding signal was 1.28 RPM ratio (pull-down/input).
In the case of “GATGATTGTTCTCCCAGCTGATGAATTGCAATGTTCGAGTAAACAAATTTTCCTAATCTTTCTGTTCAAGCGCCATCTAC” it was 1.42 RPM ratio (pull-down/input); in that of “GATGATTGTTCTCCCAGCTGATGAATTACACTCATCGAGTAAACAAATTTTCCTAATCTTTCTGTTCAAGCGCCATCTAC”, 1.13 RPM ratio (pull-down/input).
As for “GATGATTGTTCTCCCAGCTGATGAATTTACGATATCGAGTAAACAAATTTTCCTAATCTTTCTGTTCAAGCGCCATCTAC”, the binding signal is 1.3 RPM ratio (pull-down/input).
For the sequence “GATGATTGTTCTCCCAGCTGATGAATTATCCTTCTCGAGTAAACAAATTTTCCTAATCTTTCTGTTCAAGCGCCATCTAC”, the binding signal is 0.844 RPM ratio (pull-down/input).
With “GATGATTGTTCTCCCAGCTGATGAATTGTCGTGCTCGAGTAAACAAATTTTCCTAATCTTTCTGTTCAAGCGCCATCTAC”, the binding signal was 0.933 RPM ratio (pull-down/input).
For the sequence “GATGATTGTTCTCCCAGCTGATGAATTCTGATCCTCGAGTAAACAAATTTTCCTAATCTTTCTGTTCAAGCGCCATCTAC”, the binding signal is 0.734 RPM ratio (pull-down/input).
In the case of “GATGATTGTTCTCCCAGCTGATGAATTTCGTATATCGAGTAAACAAATTTTCCTAATCTTTCTGTTCAAGCGCCATCTAC”, the binding signal was 1.1 RPM ratio (pull-down/input).
The same measure for “GATGATTGTTCTCCCAGCTGATGAATTCGATTACTCGAGTAAACAAATTTTCCTAATCTTTCTGTTCAAGCGCCATCTAC”: 0.91 RPM ratio (pull-down/input).
With “GATGATTGTTCTCCCAGCTGATGAATTTTGGCCTTCGAGTAAACAAATTTTCCTAATCTTTCTGTTCAAGCGCCATCTAC”, the binding signal was 0.886 RPM ratio (pull-down/input).
